Among the targets are SHP2 C-SH2 domain E139D; SHP2 N-SH2 domain L43F; SHP2 N-SH2 domain T42A; SHP2 N-SH2 domain T52S.
Common to all, as to experiment: enrichment score (SH2-bound / input frequency) (ratio); bacterial display of known human phosphotyrosine sites (pTyr-Var adds point mutants) read by sequencing; higher = stronger binding; tyrosines were phosphorylated by kinases first
Holding throughout (conditions): peptide library: pTyr-Var

Test [1] deals with SHP2 C-SH2 domain wild-type.
For test [2], the target named is SHP2 N-SH2 domain wild-type.

The list shows a part of the results. Rule as the data show it: active = 3.2 or more and inactive = the rest. Most of these values are background signal.

Data on 19 molecules can be found in the supplement of paper PMC10369915.
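Also: displayed peptides selected on beads carrying the immobilized SH2 domain, with library peptides lacking any tyrosine serving as negative controls.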

For DISEPYKVFRI [IRF8_Y107_YF], the enrichment score was inactive: 0.656 with SHP2 C-SH2 domain E139D; inactive: 0.761 in test [1]; inactive: 0.747 with SHP2 N-SH2 domain L43F; inactive: 0.528 with SHP2 N-SH2 domain T42A; inactive: 0.721 with SHP2 N-SH2 domain T52S; inactive: 0.71 in test [2].
Take PINLFYLMDLS [ITGB2_Y131_D128N_YF]: the enrichment score with SHP2 C-SH2 domain E139D was inactive: 0.972; in test [1] it was inactive: 1.19; with SHP2 N-SH2 domain L43F it was inactive: 0.966; with SHP2 N-SH2 domain T42A, inactive: 0.951; with SHP2 N-SH2 domain T52S, inactive: 1; in test [2], inactive: 1.28.
Regarding LIDGYYRLTAD [JAK2_Y373], the enrichment score with SHP2 C-SH2 domain E139D was inactive: 1.27; in test [1], active: 3.28; in the test with SHP2 N-SH2 domain L43F, inactive: 1.04; in the test with SHP2 N-SH2 domain T42A, inactive: 0.975; in the test with SHP2 N-SH2 domain T52S, inactive: 1.5; in test [2], inactive: 0.985.
For FDRREYSRFEK [ITGB7_Y758_YF], the enrichment score was inactive: 0.632 with SHP2 C-SH2 domain E139D; inactive: 0.566 in test [1]; inactive: 0.619 in the test with SHP2 N-SH2 domain L43F; inactive: 0.474 with SHP2 N-SH2 domain T42A; inactive: 0.495 in the test with SHP2 N-SH2 domain T52S; inactive: 0.738 in test [2].
Consider SLIDGYFRLTA [JAK2_Y372_YF], for which the enrichment score in the test with SHP2 C-SH2 domain E139D was inactive: 1.81; in test [1] it was active: 3.54; with SHP2 N-SH2 domain L43F, inactive: 1.58; with SHP2 N-SH2 domain T42A it was inactive: 1.42; in the test with SHP2 N-SH2 domain T52S, inactive: 1.65; in test [2], inactive: 1.64.
YQQLFYLLQTN [IQGAP2_Y890]: the enrichment score with SHP2 C-SH2 domain E139D was inactive: 2.82; in test [1], inactive: 2.93; in the test with SHP2 N-SH2 domain L43F, inactive: 2.69; in the test with SHP2 N-SH2 domain T42A, inactive: 3.02; with SHP2 N-SH2 domain T52S, inactive: 2.88; in test [2], inactive: 2.66.
For ADAHHYLCKEV [JAK2_Y382], the enrichment score in the test with SHP2 C-SH2 domain E139D was inactive: 1.13; in test [1], inactive: 1.51; with SHP2 N-SH2 domain L43F, inactive: 1.37; with SHP2 N-SH2 domain T42A, inactive: 0.933; in the test with SHP2 N-SH2 domain T52S it was inactive: 1.38; in test [2], inactive: 1.5.
As for KKFVPYFDLFM [IPO5_Y530_E525K_YF], the enrichment score is inactive: 2 in the test with SHP2 C-SH2 domain E139D; inactive: 2.04 in test [1]; inactive: 1.77 in the test with SHP2 N-SH2 domain L43F; inactive: 2.26 with SHP2 N-SH2 domain T42A; inactive: 1.75 with SHP2 N-SH2 domain T52S; inactive: 1.85 in test [2].
Regarding LKALKYKSMKI [ITGA11_Y1098], the enrichment score with SHP2 C-SH2 domain E139D is inactive: 0.595; in test [1] it was inactive: 0.88; with SHP2 N-SH2 domain L43F, inactive: 0.744; in the test with SHP2 N-SH2 domain T42A it was inactive: 0.906; in the test with SHP2 N-SH2 domain T52S it was inactive: 1.12; in test [2] it was inactive: 0.743.
As for SLIDGYFRLTE [JAK2_Y372_A377E_YF], the enrichment score with SHP2 C-SH2 domain E139D is inactive: 1.32; in test [1] it was inactive: 2.59; with SHP2 N-SH2 domain L43F, inactive: 1.13; with SHP2 N-SH2 domain T42A it was inactive: 1.06; with SHP2 N-SH2 domain T52S, inactive: 0.982; in test [2] it was inactive: 0.908.
On to KSPGEYVNIEF [IRS1_Y896], for which the enrichment score is inactive: 1.59 with SHP2 C-SH2 domain E139D; inactive: 1.54 in test [1]; active: 3.82 with SHP2 N-SH2 domain L43F; active: 5.77 in the test with SHP2 N-SH2 domain T42A; active: 4.93 in the test with SHP2 N-SH2 domain T52S; inactive: 1.48 in test [2].
Turning to NTCNRYCCDEI [ITGB3_Y660_R662C], the enrichment score in the test with SHP2 C-SH2 domain E139D was inactive: 0.754; in test [1], inactive: 0.982; with SHP2 N-SH2 domain L43F it was inactive: 0.959; with SHP2 N-SH2 domain T42A, inactive: 0.751; in the test with SHP2 N-SH2 domain T52S, inactive: 0.684; in test [2] it was inactive: 1.05.
GRVFVYHLSEQ [ITGAE_Y551_R552H_YF]: the enrichment score was inactive: 1.15 in the test with SHP2 C-SH2 domain E139D; inactive: 1.14 in test [1]; inactive: 2.8 with SHP2 N-SH2 domain L43F; inactive: 0.86 with SHP2 N-SH2 domain T42A; active: 3.27 with SHP2 N-SH2 domain T52S; inactive: 1.4 in test [2].
Take RIRRRYCQVLN [IQCF1_Y144]: the enrichment score is inactive: 0.273 with SHP2 C-SH2 domain E139D; inactive: 0.41 in test [1]; inactive: 0.384 in the test with SHP2 N-SH2 domain L43F; inactive: 0.308 with SHP2 N-SH2 domain T42A; inactive: 0.179 in the test with SHP2 N-SH2 domain T52S; inactive: 0.253 in test [2].
Take GEDLSYGDLPP [IRS1_Y151_V154L]: the enrichment score with SHP2 C-SH2 domain E139D was inactive: 0.644; in test [1] it was inactive: 0.604; in the test with SHP2 N-SH2 domain L43F, inactive: 0.534; with SHP2 N-SH2 domain T42A, inactive: 0.549; with SHP2 N-SH2 domain T52S it was inactive: 0.748; in test [2], inactive: 0.76.
Take YQQLFYLLQIN [IQGAP2_Y890_T894I]: the enrichment score with SHP2 C-SH2 domain E139D is inactive: 2.86; in test [1] it was inactive: 2.71; with SHP2 N-SH2 domain L43F, inactive: 2.91; with SHP2 N-SH2 domain T42A it was inactive: 2.64; in the test with SHP2 N-SH2 domain T52S, inactive: 2.7; in test [2], inactive: 2.97.
Regarding EEGRVYVFHLS [ITGAE_Y549_R552H_YF], the enrichment score with SHP2 C-SH2 domain E139D was inactive: 0.811; in test [1] it was inactive: 1.14; with SHP2 N-SH2 domain L43F, inactive: 0.993; with SHP2 N-SH2 domain T42A it was inactive: 0.988; with SHP2 N-SH2 domain T52S, inactive: 0.698; in test [2], inactive: 0.79.
For IMITGYLLLFR [INSR_Y87_D86G], the enrichment score with SHP2 C-SH2 domain E139D is inactive: 2.3; in test [1], inactive: 2.71; in the test with SHP2 N-SH2 domain L43F, inactive: 1.91; with SHP2 N-SH2 domain T42A, inactive: 2.14; with SHP2 N-SH2 domain T52S, inactive: 2.35; in test [2] it was inactive: 1.8.
Consider PESCFYKESWL [IQGAP2_Y630_L629F], for which the enrichment score is inactive: 0.731 with SHP2 C-SH2 domain E139D; inactive: 1.04 in test [1]; inactive: 0.95 with SHP2 N-SH2 domain L43F; inactive: 1.18 with SHP2 N-SH2 domain T42A; inactive: 0.794 with SHP2 N-SH2 domain T52S; inactive: 1.46 in test [2].
